Assay results reported in PubChem BioAssay AID624417 (National Center for Advancing Translational Sciences (NCATS), 2012).
In all, about 410,000 compounds went through this assay and about 6,400 (1.6%) were called active. Inconclusive results, whose numbers are uncertain, are shown with a selection of clear calls. The call rests on the fitted dose curve; in most records, active means well fitted inhibition curve with a large enough effect; inconclusive means small, poorly fitted or top-dose-only effect; inactive means no such curve, though single readings can be large or run the other way. Where the call is inconclusive, the potency comes from a doubtful curve fit.

Each compound was assayed against Glucagon-like peptide 1 receptor (Homo sapiens) (UniProt P43220) (assay: qHTS of GLP-1 Receptor Inverse Agonists (Inhibition Mode)). Conditions: HEK293 GLP-1R CRE-luciferase, luminescence, 24 h, GLP-1R form is constitutively active; series mostly up to 38.3 µM.
UniProt P43220, sequence (P43220 whole entry, looked up): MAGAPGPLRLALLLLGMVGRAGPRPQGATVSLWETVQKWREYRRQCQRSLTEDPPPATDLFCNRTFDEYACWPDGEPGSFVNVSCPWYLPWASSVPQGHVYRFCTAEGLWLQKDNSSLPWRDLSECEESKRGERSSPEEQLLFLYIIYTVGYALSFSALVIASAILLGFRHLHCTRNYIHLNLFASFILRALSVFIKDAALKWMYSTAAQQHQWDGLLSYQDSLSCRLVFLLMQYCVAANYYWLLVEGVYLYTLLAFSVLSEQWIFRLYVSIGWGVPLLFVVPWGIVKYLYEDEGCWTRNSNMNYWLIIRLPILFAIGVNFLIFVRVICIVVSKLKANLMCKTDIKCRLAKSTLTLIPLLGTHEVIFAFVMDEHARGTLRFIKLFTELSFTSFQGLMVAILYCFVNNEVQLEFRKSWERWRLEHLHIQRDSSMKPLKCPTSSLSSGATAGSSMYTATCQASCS
How it was run: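 Assay principle: reduced luminescence from a cAMP-responsive reporter in HEK293 cells co-expressing a constitutively active GLP-1R. Conditions: 24 hr compound incubation, 37 deg C, 5% CO2.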
Further: nearly all actives have a fitted effect of over 55% in size.
Potency means the concentration at half of the fitted maximal effect; tags describe the fitted curve by direction and shape.

Potency, inactive:
CCOC(=O)c1nc2nc(-c3cccs3)cc(C(F)(F)F)n2n1, CCOc1cc(C(=S)N2CCCCC2)ccc1OS(=O)(=O)c1ccc(Cl)cc1, O=c1oc2c(-c3cccc(F)c3)cc(O)cc2s1, COc1ccc(CNC(=O)Cn2c(=O)nc(-c3ccccc3F)c3cc(Cl)ccc32)cc1, Cc1sc2ncnc(N3CCC(C(=O)Nc4ccc(C#N)cc4)CC3)c2c1C, CCn1ccc(C(=O)Nc2ccc(Cl)cn2)n1, CCN(CC)CCNC(=O)c1cc2c(=O)[nH]c3ccc(C)cc3c2s1

Potency, active:
O=C(CN1CCN(S(=O)(=O)c2ccccc2)CC1)Nc1cccc(C(F)(F)F)c1 4.47 µM, O=S(=O)(NCC(c1ccco1)N1CCN(c2ccc(F)cc2)CC1)c1ccc(F)cc1 (stereo unspecified) 10 µM, COc1cccc(NC(=O)Cc2csc(NC(=O)Nc3ccccc3OC)n2)c1 10 µM

Potency, inconclusive:
O=C(CNc1ccc(F)cc1)N/N=C/c1c(O)ccc2ccccc12 3.16 µM [inhibitor, full curve, poor fit], CC1(C)Oc2cc3oc(-c4cc(O)cc(O)c4)cc3cc2CC1O (stereo unspecified) 2 µM [inhibitor, full curve, poor fit], Cc1nc2sc(C(c3ccc(Cl)cc3)N3CCN(c4ccccc4F)CC3)c(O)n2n1 (stereo unspecified) 28.2 µM [inhibitor, single point], CCOc1ccccc1N1CCN(CC(O)COCc2cccs2)CC1 (stereo unspecified) 3.16 µM [inhibitor, partial curve, poor fit], COc1ccc(-c2nn(-c3ccccc3)cc2C(=O)NCC2CCCO2)cc1 (stereo unspecified) 31.6 µM [inhibitor, single point], Cc1ccc2nc(-c3ccccc3N)[nH]c2c1 8.91 µM [inhibitor, partial curve, poor fit], CC(C)(C)C1c2[nH]c3ccccc3c2CCN1Cc1cccc(OCCO)c1 (stereo unspecified) 31.6 µM [inhibitor, partial curve, poor fit], Cc1ccc(-c2nc3c(C)cccn3c2Nc2ccccc2C)s1 20 µM [inhibitor, single point], N#Cc1c(NC(=O)Cn2c(=O)oc3ccccc32)oc(-c2ccccc2)c1-c1ccccc1 28.2 µM [inhibitor, single point], CC(Oc1cccc(Cl)c1)C(=O)Nc1ccccc1N1CCCC1 (stereo unspecified) 12.6 µM [inhibitor, partial curve, poor fit], Cc1nc(N2CCOCC2)nc(N2CCN(c3ccccc3)CC2)c1[N+](=O)[O-] 0.501 µM [inhibitor, full curve, poor fit], CCOc1ccc(CNc2ccc(N3CCN(Cc4ccccc4)CC3)cc2)cc1 11.2 µM [inhibitor, single point], CCN(CCCNC(=O)c1ccc(Sc2ccc(F)cc2)c(NC(C)=O)c1)c1ccccc1 10 µM [inhibitor, partial curve, poor fit], N#CCCn1cc(/C=C2\NC(=S)N(c3ccccc3)C2=O)c(-c2ccc(F)cc2)n1 5.01 µM [inhibitor, partial curve, poor fit], COc1ccc(-c2c(C#N)c(N)nc3c2CCc2ccccc2-3)cc1OC 8.91 µM [inhibitor, partial curve, poor fit], CCCCCCC1CC(=CN(C)C)C(=O)O1 (stereo unspecified) 14.1 µM [inhibitor, partial curve, poor fit], Cc1csc(SC(C)c2nc3scc(-c4ccccc4)c3c(=O)[nH]2)n1 (stereo unspecified) 10 µM [inhibitor, partial curve, poor fit], Cn1c(=N)n(CC(=O)c2ccc(Br)s2)c2ccccc21 7.08 µM [inhibitor, partial curve, poor fit], O=C(C1c2ccccc2Oc2ccccc21)N1CCN(c2ccc(Cl)cc2)CC1 6.31 µM [inhibitor, partial curve, poor fit], Cc1cccc(NC(=O)NCCCCc2ccccc2)c1 8.91 µM [inhibitor, partial curve, poor fit], C[C@H](NS(=O)(=O)OCC(Cl)(Cl)Cl)C1CC1c1ccccc1 (stereo partly specified) 28.2 µM [inhibitor, single point], Cc1ccc(C2=CC(C)(c3ccc(C)cc3)Nc3nc(C(F)(F)F)nn32)cc1 (stereo unspecified) 10 µM [inhibitor, single point], CC(C)c1ccc(/C=C2\SC(=S)N(CC(=O)NCCCN3CCOCC3)C2=O)cc1 28.2 µM [inhibitor, single point], COc1ccccc1-c1sc2ccccc2c1-c1ccccc1OC 10 µM [inhibitor, single point], CCN(CC(=O)NCc1ccc(Cl)cc1)C(=O)c1ccc2cc(OC)ccc2c1 7.94 µM [inhibitor, partial curve], O=C(CSc1ccc(Cl)cc1)Nc1ccc(-c2nc3ccccc3[nH]2)cc1 12.6 µM [inhibitor, single point], CC(C)c1ccccc1NC(=O)CSc1nnc(COc2ccccc2Cl)o1 11.2 µM [inhibitor, single point], CCN(c1ccc(C)cc1)S(=O)(=O)c1nnc(NC(=O)c2cccs2)s1 28.2 µM [inhibitor, single point], COc1ccccc1CNC(=O)Cn1ncc2c(C)n(Cc3ccccc3Cl)c(C)c2c1=O 8.91 µM [inhibitor, single point], O=C(Nc1cccnc1)Nc1ccc(Cl)cc1Cl 11.2 µM [inhibitor, single point], Cc1ccc(-c2ccc(CCC(=O)O)n2-c2ccc(C(C)C)cc2)cc1 28.2 µM [inhibitor, single point]
